The subject of this assay is Human PBMC from B Lymphoma Patients. As to the kind of experiment: Proliferation of human PBMC from B lymphoma patients (3H-thymidine uptake). The conditions noted are these: 3H-thymidine uptake at 90 hours; LPS 20 μg/ml, HSA and conjugates 100 μg/ml.

In the case of lipopolysaccharide [LPS], the “CPM, B-LYMPHOMA-1” value is listed as 80424 CPM; the “CPM, B-LYMPHOMA-2” value came to 1084 CPM; the “CPM, B-LYMPHOMA-3” value was determined as 3424 CPM.

Values taken from US6540999B1, “Immunomodulatory methods using Lewisx oligosacchardies” (President and Fellows of Harvard College, priority 1996, dated 2003).
